Results: patent CN117138036A

Biological target: 混合人源IL-4、IL-5 (human), P05112
Assay: cell-based or functional assay

混合人源IL-4、IL-5 (human), P05112, sequence (P05112 25-153 limits assumed, chain 1 of 2): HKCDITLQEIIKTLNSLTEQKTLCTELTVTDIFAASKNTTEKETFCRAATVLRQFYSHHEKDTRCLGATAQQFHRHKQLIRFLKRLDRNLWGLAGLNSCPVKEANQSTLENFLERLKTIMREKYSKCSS
混合人源IL-4、IL-5 (human), P05112, sequence (P05113 20-134 limits assumed, chain 2 of 2, further chain): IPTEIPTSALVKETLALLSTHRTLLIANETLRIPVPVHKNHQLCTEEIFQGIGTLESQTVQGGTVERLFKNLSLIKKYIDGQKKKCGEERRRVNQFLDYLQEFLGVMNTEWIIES

B1: 4E9V10-2B3V2-2 (bispecific antibody, human IgG4 S228P)
chain: QVQLVESGGGLVQPGGSLRLSCAASGDFYCMAWFRQAPGKEREAVAAIRSGGRSTYYADSVKGRFTISRDNSKNTLYLQMNSLKAEDTAVYYCAVGVDGNCRNYWGQGTLVTVSS[in this place human IgG4 Fc with S228P (EU numbers)]ESKYGPPCPPCPQVQLVESGGGSVQAGGSLRLSCAASGNTFSFSTYCMGWFRQSPGKEREGSLATIYDASTAYAGSVKGRFTISRDNSKNILYLQMNNLRAEDTAVYYCAAARYCMFWSHPSYWGQGTQVTVSS
- EC50, IL4:IL5=1:1混合诱导TF-1增殖, 板7: 0.369 nM
- EC50, IL4:IL5=1:1混合诱导TF-1增殖, 板8: 0.371 nM
- EC50, IL4:IL5=1:2混合诱导TF-1增殖, 板9: 0.595 nM
- EC50, IL4:IL5=1:2混合诱导TF-1增殖, 板10: 0.736 nM
- EC50, IL4:IL5=1:3混合诱导TF-1增殖, 板11: 0.152 nM
- EC50, IL4:IL5=1:3混合诱导TF-1增殖, 板12: 0.108 nM
- EC50, IL4:IL5=1:4混合诱导TF-1增殖, 板13: 0.0788 nM
- EC50, IL4:IL5=1:4混合诱导TF-1增殖, 板14: 0.0499 nM
- EC50, IL4:IL5=2:1混合诱导TF-1增殖, 板5: 0.24 nM
- EC50, IL4:IL5=2:1混合诱导TF-1增殖, 板6: 0.213 nM
- EC50, IL4:IL5=3:1混合诱导TF-1增殖, 板3: 0.243 nM
- EC50, IL4:IL5=3:1混合诱导TF-1增殖, 板4: 0.219 nM
- 试验窗口, IL4:IL5=1:1混合诱导TF-1增殖, 板7: 1.71 倍
- 试验窗口, IL4:IL5=1:1混合诱导TF-1增殖, 板8: 1.7 倍
- 试验窗口, IL4:IL5=1:2混合诱导TF-1增殖, 板9: 1.58 倍
- 试验窗口, IL4:IL5=1:2混合诱导TF-1增殖, 板10: 1.64 倍
- 试验窗口, IL4:IL5=1:3混合诱导TF-1增殖, 板11: 1.5 倍
- 试验窗口, IL4:IL5=1:3混合诱导TF-1增殖, 板12: 1.74 倍
- 试验窗口, IL4:IL5=1:4混合诱导TF-1增殖, 板13: 1.5 倍
- 试验窗口, IL4:IL5=1:4混合诱导TF-1增殖, 板14: 1.67 倍
- 试验窗口, IL4:IL5=2:1混合诱导TF-1增殖, 板5: 1.55 倍
- 试验窗口, IL4:IL5=2:1混合诱导TF-1增殖, 板6: 1.63 倍
- 试验窗口, IL4:IL5=3:1混合诱导TF-1增殖, 板3: 1.53 倍
- 试验窗口, IL4:IL5=3:1混合诱导TF-1增殖, 板4: 1.6 倍
